This is an account of results in ChEMBL document CHEMBL4888484, “Replenishing the malaria drug discovery pipeline: Screening and hit evaluation of the MMV Hit Generation Library 1 (HGL1) against asexual blood stage Plasmodium falciparum ,using a nano luciferase reporter read-out” (2022).

The structures appear in SMILES notation. In all, about 150,000 compounds went through this assay and about 540 (0.36%) showed an effect of 50% or more. Some of the results follow.

The test system of this experiment is Plasmodium falciparum. The experiment is described as follows: Primary screen in NF54 nanoGlo assay, in single point, at 2uM, 72h; a lower Z score goes with more inhibition. In kind it is functional, Erythrocyte. Conditions: timepoint 72 hour.
For orientation: % Inhibition means the drop in the measured response relative to a control, in per cent. Turning to `COC[C@@]1(CNS(=O)(=O)c2ccc(F)cc2)C[C@@H](O)[C@@H](O)C1`, the “% Inhibition” value was -2% and the Z score is 0.25.
Taken in the same sequence, the figures for `Cc1nc2c(c(N3CCC(NC(=O)NCc4ccc(F)cc4)CC3)n1)CCCC2` were -11% and 1.39.
Regarding `CCC(CC)N(Cc1ccc2c(c1)OCO2)C(=O)c1ccncc1`, the “% Inhibition” value is reported as -2% and the Z score came to 0.37.
Taken in the same sequence, the figures for `OCC1(CCCc2ccccc2)CCN(Cc2cc(F)ccc2F)CC1` were -16% and 2.15.
On to `CCc1nnc(CN(C)CCc2ccncc2)n1C`, for which the “% Inhibition” value is -1% and the Z score is 0.13.
On to `COCCNS(=O)(=O)c1cc(CN2C(=O)C3CCCCC3C2=O)ccc1C` (centres undefined), for which the “% Inhibition” value was -10% and the Z score worked out at 1.3.
Taken in the same sequence, the figures for `C=CCN(Cc1ccc(F)cc1)C(=O)c1ccc(CCN2CCCC2)nc1` were -9% and 1.18.
On the same counts, the results for `Cc1cc(C)nc(NC(=O)CC(C)C)c1` are -5% and 0.86.
On to `O=C(Nc1cc(Cl)ccc1Cl)c1cc2c(ccc3ccccc32)o1`, for which the “% Inhibition” value was 0% and the Z score was found to be 0.03.
Consider `CCOc1ccc(NC(=O)c2sc3nc(C)cc(C)c3c2C)cc1S(=O)(=O)N1CCCCC1`, for which the “% Inhibition” value is -15% and the Z score was 2.39.
Taken in the same sequence, the figures for `CN1CCN([C@H]2COC[C@@H]2NC(=O)C2CCCC2)CC1` were -5% and 0.86.
As for `CCCN(CCN1CCN(CC)CC1)C(=O)c1scc(C)c1Cl`, the “% Inhibition” value is given as -7% and the Z score is recorded as 1.11.
Consider `Cn1nccc1NC(=O)N1CC2(CCCCC2)[C@H]1c1ccccc1`, for which the “% Inhibition” value is listed as -4% and the Z score was 0.38.
On the same counts, the results for `COc1cccc(CNC[C@@]2(COc3cccnc3)C[C@@H](O)[C@@H](O)C2)c1` are -11% and 1.73.
Taken in the same sequence, the figures for `O=C([C@@H]1C[C@@H](F)CN1C(=O)c1cncc(N2CCOCC2)c1)N1CCOCC1` were 13% and -1.29.
Taken in the same sequence, the figures for `CCn1c(-c2cc(NC(=O)c3ccc(C)c(F)c3)[nH]n2)cc2c(OC)cccc21` were 14% and -1.64.
With `Cc1ccc(C)c(Cn2cc(S(=O)(=O)N3CCCCC3)ccc2=O)c1`, the “% Inhibition” value is -4% and the Z score was determined as 0.86.
Regarding `O=C(CCCn1ccnc1)N[C@H]1CC[C@@H]2CCC[C@@H]21`, the “% Inhibition” value was 6% and the Z score is -0.82.
On the same counts, the results for `Cc1cc(CS(=O)(=O)Nc2c(C)cccc2F)no1` are -12% and 1.56.
Taken in the same sequence, the figures for `Cc1ccc(C)c(S(=O)(=O)Nc2nc3ccccc3nc2Nc2ccc3c(c2)OCO3)c1` were -2% and 0.43.
On the same counts, the results for `N#C[C@@H](c1ccc(Cl)c(Cl)c1)c1cnccn1` are 11% and -1.65.
For `Cc1nc(C2CC2)oc1C(=O)N1CCCCC2CCCCC21` (centres undefined), the “% Inhibition” value is reported as -7% and the Z score turned out to be 0.7.
On the same counts, the results for `CN(Cc1cnc(NCc2ccccc2)nc1)[C@H]1COC[C@@H]1O` are 3% and -0.44.
Taken in the same sequence, the figures for `CC(C)(C)n1cc(C#N)c(NS(=O)(=O)c2c[nH]c3ccccc23)n1` were -14% and 1.9.
Taken in the same sequence, the figures for `CN(Cc1csc(-c2ccccc2)n1)Cc1nc(CC2CC2)no1` were -7% and 1.36.
`CCOC(=O)c1[nH]c(=O)[nH]c1[C@H]1C[C@@H](NC(C)=O)C[C@@H](c2ccccc2)O1`: the “% Inhibition” value came to 5% and the Z score is listed as -0.6.
Taken in the same sequence, the figures for `Cc1nc(C(=O)O[C@@H](C)C(=O)Nc2ccccc2)c2n1CCCC2` were -2% and 0.28.
On the same counts, the results for `O=C(Cn1c(=O)n(-c2ccccc2)c(=O)n1CC(=O)N1CCCCC1)N1CCCCC1` are -2% and 0.27.
Taken in the same sequence, the figures for `Nc1ccnc(-c2ccccc2CN2CCOCC2)c1` were 2% and -0.34.
With `Cc1cc(S(=O)(=O)NC[C@H]2CCCCN2)c(C)o1`, the “% Inhibition” value came to 4% and the Z score is -0.6.
Taken in the same sequence, the figures for `Cc1ccc(C(=O)C(=O)NCc2ccc(N(C)C)c(F)c2)cc1` were -7% and 1.4.
Taken in the same sequence, the figures for `Cc1c(CN(C)Cc2cnn3cccnc23)cnn1C` were 2% and -0.27.
On the same counts, the results for `CCOC(=O)[C@H]1CCCN(CCC(=O)NC(=O)NC2CCCC2)C1` are -3% and 0.3.
Consider `Cc1ccc(-n2nnnc2C(C)(C)Nc2ccc3c(c2)OCCO3)cc1`, for which the “% Inhibition” value is given as -8% and the Z score stood at 1.09.
On the same counts, the results for `NC(=O)CN(Cc1ccccc1)S(=O)(=O)CC1CCCC1` are -2% and 0.44.
Taken in the same sequence, the figures for `CCN1CC[C@H](NC(=O)OCC(F)(F)F)C(F)(F)C1` were -8% and 1.7.
As to `CS(=O)(=O)N1C[C@H]2CC[C@@H](C1)N(C(=O)c1cc(F)c(F)cc1Cl)C2`, the “% Inhibition” value is on record as 6% and the Z score is on record as -1.12.
Taken in the same sequence, the figures for `Cc1ccc(CN2C(=O)OC(c3ccc(NC(=O)c4ccco4)cc3)C2C(=O)N(C)Cc2ccccc2)cc1` (centres undefined) were -20% and 2.84.
On the same counts, the results for `C[C@H]1CN(c2ccc(F)cc2C#N)CCN1S(C)(=O)=O` are -1% and 0.07.
Consider `Cc1cc(C)n(Cc2nc(C3CN4CCCCC4CO3)no2)n1` (centres undefined), for which the “% Inhibition” value was -2% and the Z score turned out to be 0.36.
Taken in the same sequence, the figures for `O=C(NCc1ccccc1)c1cc2n(n1)CCCN(Cc1ccc(Cl)cc1)C2=O` were 2% and -0.4.
Taken in the same sequence, the figures for `Cc1nc2cc(CNC(=O)CC3CC3)ccc2n1C1CC1` were -4% and 0.38.
On the same counts, the results for `CCc1ccccc1NC(=O)CN(C)[C@@H](CC)C(=O)Nc1cc(C)on1` are -7% and 1.22.
Regarding `CC1(C)COCCN1CCNC(=O)N1CCO[C@H](c2ccc(F)cc2Cl)C1`, the “% Inhibition” value is reported as -4% and the Z score is 0.74.
Taken in the same sequence, the figures for `C[C@@H]1CN(c2cccc(C(F)(F)F)n2)CC(=O)N1` were -5% and 0.67.
Taken in the same sequence, the figures for `COc1ccc(C(=O)N(CC(=O)N2CCN(c3ccc(-c4ccc(OC)cc4)nn3)CC2)Cc2ccccc2)cc1` were -4% and 0.39.
On the same counts, the results for `COC1CCN(Cc2cn(Cc3ccccc3OC3CC3)nn2)CC1` are 14% and -1.84.
As for `CCCc1nc(CN(C)C(=O)Cc2c(C)n[nH]c2C)no1`, the “% Inhibition” value is -2% and the Z score is 0.37.
On the same counts, the results for `CCN(c1ccc2sc(C(=O)N3CCCCCC3)cc2c1)S(C)(=O)=O` are -17% and 2.23.
For the compound `CC1CC2CCCCC2N1C(=O)NCCCOC1CCOC1` (centres undefined), the “% Inhibition” value was -10% and the Z score was 1.14.
On to `CCCN(C[C@H]1CCCO1)C(=O)c1cc(NS(=O)(=O)c2ccccc2)cc2nc(C)n(CC)c12`, for which the “% Inhibition” value is reported as -9% and the Z score is listed as 1.06.
As to `COc1ccsc1C(=O)N(C[C@H]1CCCO1)c1ccncc1`, the “% Inhibition” value is on record as -11% and the Z score is reported as 1.19.
Taken in the same sequence, the figures for `Cc1nn(C)c(C)c1-c1ccnc(N2CCN(Cc3cccc(F)c3)C(=O)C2)n1` were -23% and 3.36.
On the same counts, the results for `CCc1nc(-c2ccc(C)c(S(=O)(=O)N3CCC(C(=O)N4CCCCC4)CC3)c2)no1` are -3% and 0.35.
On the same counts, the results for `CN(C[C@@H]1C[C@H](F)CN1Cc1nccn1C)S(=O)(=O)CC1CCC1(F)F` (some centres undefined) are 6% and -0.82.
Turning to `CC(C)(c1nnc2n1CCCCC2)n1cc(N)cn1`, the “% Inhibition” value is 35% and the Z score is reported as -3.91.
On to `COC(=O)[C@@H](Cc1cccnc1)NC(=O)[C@H]1CN(S(=O)(=O)c2ccccc2)CCN1C(=O)N1CCOCC1`, for which the “% Inhibition” value is reported as -14% and the Z score is on record as 2.26.
On the same counts, the results for `CC(C)C(=O)N1CC(C(=O)N2CCN(C)CC2)C(c2cccc(C(F)(F)F)c2)C1` (centres undefined) are -15% and 1.69.
On the same counts, the results for `O=C(Cc1nnn[nH]1)Nc1ccccc1Cl` are 17% and -1.93.
In the case of `CN(CCc1ccccn1)c1ncccc1CNC(=O)[C@@H]1COC(=O)N1`, the “% Inhibition” value is recorded as -4% and the Z score came to 0.78.
On the same counts, the results for `CN1CCCC[C@@H]1Cc1nc(CC(N)=O)nn1C(C)(C)C` are -11% and 1.94.
On the same counts, the results for `CCN(CC)C[C@@H]1OCC(NC(=O)CC(C)(C)C)[C@H]1O` (some centres undefined) are 25% and -2.84.
With `COc1ccc(CNC(=O)c2ccc(-c3cccc(C)c3)[nH]c2=O)cc1`, the “% Inhibition” value was -10% and the Z score is on record as 1.27.
As to `CC1(C(=O)NCc2ccccc2S(C)(=O)=O)COC1`, the “% Inhibition” value was determined as 2% and the Z score is listed as -0.3.
On the same counts, the results for `Cc1noc(C)c1Cn1cc(-c2c[nH]nc2-c2ccccc2)nn1` are -10% and 0.92.
Taken in the same sequence, the figures for `O=C(CC1C=CCC1)N1CCCC1c1ccc[nH]1` (centres undefined) were -13% and 1.28.
On the same counts, the results for `Cc1cc(C)n2ncc(CN3CCC(CNC(=O)c4oc(C)nc4C)CC3)c2n1` are -12% and 2.24.
With `CC[C@H](O)C1CCN(C(=O)c2cc(NC(=O)COC)cc3nc(-c4cccnc4)n(CC)c23)CC1`, the “% Inhibition” value is on record as -11% and the Z score is 2.11.
On the same counts, the results for `Cc1ccoc1C(=O)NCCNC(=O)c1ccn[nH]1` are -1% and 0.13.
Taken in the same sequence, the figures for `COc1cc(C(=O)NCCc2c(C)n3c4c(cccc24)CCC3)cc(OC)c1OC` were -3% and 0.59.
Taken in the same sequence, the figures for `CCCCC1CCCC1NC(=O)N(C)CC` (centres undefined) were -4% and 0.38.
In the case of `Cc1c(Cl)ccc2ccc(NCc3ncnn3C)nc12`, the “% Inhibition” value was -10% and the Z score worked out at 0.98.
On the same counts, the results for `Cc1ccc(N2C(=O)c3ccccc3[C@@H]2c2c[nH]c3ccccc23)cc1` are 63% and -5.25.
On the same counts, the results for `Cc1cc(C(=O)NC[C@H]2CCCO2)c2c(-c3ccccc3F)noc2n1` are -28% and 3.26.
Consider `Cc1cc(N2CCCC(NC(=O)N3CC[C@H]4CCCC[C@H]43)C2)n(C)n1` (some centres undefined), for which the “% Inhibition” value was determined as 6% and the Z score was -0.9.
With `COC(=O)c1c(NC(C)=O)c2cc(NC3CCOCC3)cnc2n1CCc1ccc(OC)cc1`, the “% Inhibition” value was 42% and the Z score is reported as -5.53.
Taken in the same sequence, the figures for `COC(=O)c1cc(C)nc2c1c(=O)n(CC(=O)Nc1ccc3c(c1)OCO3)c(=O)n2-c1ccccc1` were -9% and 1.13.
Taken in the same sequence, the figures for `Cc1ccc(NCc2cc(=O)n3ccccc3n2)c(OCC(=O)N(C)C)c1` were -5% and 0.94.
As to `CC(C)(CC(=O)OC(C)(C)C)NCc1nnn(C(C)(C)C)n1`, the “% Inhibition” value was 16% and the Z score is on record as -2.01.
Taken in the same sequence, the figures for `CCN1CCN(C[C@@H]2CN(c3ncnc4[nH]ccc34)C[C@@H]2CO)CC1` were 2% and -0.44.
On the same counts, the results for `NS(=O)(=O)N1CCN(Cc2ccn(C3CCCC3)n2)CC1` are 36% and -4.79.
Taken in the same sequence, the figures for `Nc1nc(-c2ccc(Cl)cc2Cl)c(-n2cncn2)s1` were -37% and 4.37.
